# Experimental data taken from PubChem BioAssay AID624417 (National Center for Advancing Translational Sciences (NCATS), 2012).
# The whole screen tested about 410,000 compounds, of which about 6,400 (1.6%) were called active. Inconclusive results, whose numbers are uncertain, are shown with a selection of clear calls. The call rests on the fitted dose curve; in most records, active means well fitted inhibition curve with a large enough effect; inconclusive means small, poorly fitted or top-dose-only effect; inactive means no such curve, though single readings can be large or run the other way. Potencies of inconclusive entries are left out as doubtful fits.
# Molecular target: Glucagon-like peptide 1 receptor (Homo sapiens) (UniProt P43220)
# Chain of UniProt P43220 (P43220 whole entry, looked up): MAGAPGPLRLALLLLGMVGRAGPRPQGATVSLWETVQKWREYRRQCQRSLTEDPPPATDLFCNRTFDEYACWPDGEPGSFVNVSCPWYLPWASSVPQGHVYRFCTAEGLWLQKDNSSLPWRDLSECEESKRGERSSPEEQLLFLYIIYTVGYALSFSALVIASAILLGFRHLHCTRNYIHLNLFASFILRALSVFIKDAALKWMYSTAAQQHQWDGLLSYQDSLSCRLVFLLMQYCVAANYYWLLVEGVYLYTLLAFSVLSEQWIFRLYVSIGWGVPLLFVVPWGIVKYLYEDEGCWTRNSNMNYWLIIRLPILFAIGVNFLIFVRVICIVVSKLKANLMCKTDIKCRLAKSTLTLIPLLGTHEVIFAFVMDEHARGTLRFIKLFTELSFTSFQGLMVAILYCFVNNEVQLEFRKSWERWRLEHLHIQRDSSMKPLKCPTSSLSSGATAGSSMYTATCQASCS
# Test: qHTS of GLP-1 Receptor Inverse Agonists (Inhibition Mode); further: nearly all actives have a fitted effect of over 55% in size
# Conditions: HEK293 GLP-1R CRE-luciferase, luminescence, 24 h, GLP-1R form is constitutively active; activity change, negative = inhibition: at 38.3 µM (top of the series) unless noted
# Summary of the method: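 Stable HEK293 clone (constitutively active GLP-1R + cAMP-response luciferase); 200 cells/uL plated, 12 h pre-culture, compound 24 hr, 37 deg C/5% CO2; detection reagent 12 min RT; luminescence.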
# On the % scale 0 is the no-effect control and ±100 the full control effect; potency means the concentration at half of the fitted maximal effect; tags describe the fitted curve by direction and shape.
Structure (SMILES),Potency,"activity change, negative = inhibition"
COc1cc2ccccc2cc1C(=O)Nc1cc(C)ccn1,"inconclusive [inhibitor, single point]",
CC1(c2ccccc2)O[C@@H]2C[C@H]3[C@@H]4CCC5=CC(=O)C=C[C@]5(C)[C@@]4(F)[C@@H](O)C[C@]3(C)[C@]2(C(=O)CO)O1 (some centres not stated),active: 7.94 µM,
COc1ccc(-n2nc3c(N4CCC(C(=O)NCc5cccc(C)c5)CC4)nnc(C)c3c2C)cc1,"inconclusive [inhibitor, partial curve, poor fit]",
NS(=O)(=O)c1ccc(CCNC(=O)CSc2nc3c(sc(=S)n3-c3ccccc3)c(=O)[nH]2)cc1,,inactive: 9.43%
CN(CC(=O)Nc1cccc(F)c1)C(=O)c1ccc(NC2CC2)c([N+](=O)[O-])c1,"inconclusive [inhibitor, single point]",
CCOc1cc(NC(=S)NC)c(OCC)cc1NC(=O)c1cccs1,,inactive: 3.52%
CN(CC(=O)Nc1cccc(F)c1)C(=O)C1CCN(C(=O)c2ccc(Cl)cc2)CC1,"inconclusive [inhibitor, single point]",
CCOC(=O)C(C)(C)Sc1ncnc2nc[nH]c12,,inactive: 0.473%
COc1cc(OC)c2c(-c3cccc(-c4ccc(OC)c(OC)c4)c3)cc(=O)oc2c1,"inconclusive [inhibitor, full curve, poor fit]",
CC1CCCC(C)N1C(=O)CSc1nnc(COc2ccccc2)n1-c1ccccc1 (configuration not stated),"inconclusive [inhibitor, single point]",
Cc1cc(C(=O)NNC(=O)c2c(-c3c(Cl)cccc3Cl)noc2C)no1,,inactive: -11.3%
O=C(COc1ccccc1)N(Cc1ccco1)c1ccc(O)cc1,"inconclusive [inhibitor, partial curve, poor fit]",
COc1ccc(Nc2oc(COc3ccccc3OC)nc2C#N)cc1,"inconclusive [inhibitor, partial curve, poor fit]",
C=CCOc1cccc(C2C(C(=O)c3cc4ccccc4o3)=C(O)C(=O)N2c2cc(C)on2)c1 (configuration not stated),"inconclusive [inhibitor, partial curve, poor fit]",
CCC(C(=O)NCCCN1CC(C)CC(C)C1)n1nc(C)c2sc3ccccc3c2c1=O (configuration not stated),"inconclusive [inhibitor, single point]",
Cc1nc(-c2cccc(NC(=O)c3ccc(Br)o3)c2)cs1,"inconclusive [inhibitor, single point]",
Cc1ccc(C)c(CN2C(=O)c3ccccc3S(=O)(=O)c3ccc(C(=O)N4CCOCC4)cc32)c1,,inactive: -31.5%
